Paper PMC11250848
Where a chain is given by its changes, count along the chain named. Results are given in words; binding and its absence hold for the method and conditions named. Binding seen in cells or lysates may run through a third protein. Some entries that bind do so weakly or less than the wild type. For part of these data: Tags and fused reporters may be left off the sequences shown.

The chains behind the UniProt entries cited, without tags or fusion partners.
UniProt O95166: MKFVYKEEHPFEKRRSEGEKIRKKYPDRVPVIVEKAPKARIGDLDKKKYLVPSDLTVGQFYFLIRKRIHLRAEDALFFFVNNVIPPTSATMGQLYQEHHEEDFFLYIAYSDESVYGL
UniProt Q9BSR8: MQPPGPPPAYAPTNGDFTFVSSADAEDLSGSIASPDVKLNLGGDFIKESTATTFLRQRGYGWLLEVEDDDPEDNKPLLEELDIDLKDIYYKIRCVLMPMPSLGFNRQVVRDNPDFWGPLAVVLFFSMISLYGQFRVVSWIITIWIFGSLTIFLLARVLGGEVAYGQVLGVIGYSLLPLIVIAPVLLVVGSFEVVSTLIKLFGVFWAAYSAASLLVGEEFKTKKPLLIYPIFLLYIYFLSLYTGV

How the values were obtained:
FLAG-tagged GABARAP = FLAG-tagged GABARAP (UniProt O95166); assay: co-IP; FLAG–ATG8s transfected into HEK293T cells; lysis in 50 mM Tris-HCl pH 7.4, 150 mM NaCl, 1 mM EDTA, 1% Triton X-100; anti-FLAG M2 agarose for 2 h or overnight at 4 °C; endogenous YIPF3 and YIPF4 detected by immunoblot
FLAG–YIPF3 (human) = FLAG–YIPF3 (human) (UniProt Q9GZM5); assay: co-IP; FLAG–YIPF3 (WT or mutants) or FLAG–YIPF4 transfected into HEK293T cells; lysis in 50 mM Tris-HCl pH 7.4, 150 mM NaCl, 1 mM EDTA, 1% Triton X-100; anti-FLAG M2 agarose for 2 h or overnight at 4 °C; endogenous partners detected by immunoblot
[1] = molecular target: T1, FLAG–YIPF3LIR2 A_3 (Y121Z, V124 A) (human) (UniProt Q9GZM5); assay: as above
T1 sequence: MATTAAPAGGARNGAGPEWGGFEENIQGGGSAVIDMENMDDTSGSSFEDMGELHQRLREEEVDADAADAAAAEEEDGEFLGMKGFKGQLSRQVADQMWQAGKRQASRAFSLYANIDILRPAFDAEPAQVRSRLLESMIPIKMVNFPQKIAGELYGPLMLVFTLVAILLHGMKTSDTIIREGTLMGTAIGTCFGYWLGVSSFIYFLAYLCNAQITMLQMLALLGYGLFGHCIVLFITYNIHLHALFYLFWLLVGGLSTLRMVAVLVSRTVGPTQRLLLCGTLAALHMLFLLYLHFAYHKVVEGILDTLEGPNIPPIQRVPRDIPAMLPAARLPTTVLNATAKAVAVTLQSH

[2] = molecular target: T2, FLAG–YIPF3LIR2A_1 (F47A, M50A) (human) (UniProt Q9GZM5); assay: as above
T2 sequence: T1 sequence with F47A, M50A, A121Y, A124V

[3] = molecular target: T3, FLAG–YIPF3LIR2A_2 (Y112A, I115A) (human) (UniProt Q9GZM5); assay: as above
T3 sequence: T1 sequence with Y112A, I115A, A121Y, A124V

| Substance | binding (FLAG-tagged GABARAP) | binding (FLAG–YIPF3 (human)) | binding [1] | binding [2] | binding [3] |
| --- | --- | --- | --- | --- | --- |
| endogenous YIPF4 (from UniProt Q9BSR8 1-244) | no binding | binds | binds | binds | binds |
| endogenous YIPF3 (from UniProt Q9GZM5 1-350) | binds |  |  |  |  |
